Results reported in article PMC8600046.
These are yes or no findings as the source states them, for the method shown. In cells and extracts the contact can be indirect. Some entries that bind do so weakly or less than the wild type.

T1: PEX1 (UniProt O43933)
T1 sequence: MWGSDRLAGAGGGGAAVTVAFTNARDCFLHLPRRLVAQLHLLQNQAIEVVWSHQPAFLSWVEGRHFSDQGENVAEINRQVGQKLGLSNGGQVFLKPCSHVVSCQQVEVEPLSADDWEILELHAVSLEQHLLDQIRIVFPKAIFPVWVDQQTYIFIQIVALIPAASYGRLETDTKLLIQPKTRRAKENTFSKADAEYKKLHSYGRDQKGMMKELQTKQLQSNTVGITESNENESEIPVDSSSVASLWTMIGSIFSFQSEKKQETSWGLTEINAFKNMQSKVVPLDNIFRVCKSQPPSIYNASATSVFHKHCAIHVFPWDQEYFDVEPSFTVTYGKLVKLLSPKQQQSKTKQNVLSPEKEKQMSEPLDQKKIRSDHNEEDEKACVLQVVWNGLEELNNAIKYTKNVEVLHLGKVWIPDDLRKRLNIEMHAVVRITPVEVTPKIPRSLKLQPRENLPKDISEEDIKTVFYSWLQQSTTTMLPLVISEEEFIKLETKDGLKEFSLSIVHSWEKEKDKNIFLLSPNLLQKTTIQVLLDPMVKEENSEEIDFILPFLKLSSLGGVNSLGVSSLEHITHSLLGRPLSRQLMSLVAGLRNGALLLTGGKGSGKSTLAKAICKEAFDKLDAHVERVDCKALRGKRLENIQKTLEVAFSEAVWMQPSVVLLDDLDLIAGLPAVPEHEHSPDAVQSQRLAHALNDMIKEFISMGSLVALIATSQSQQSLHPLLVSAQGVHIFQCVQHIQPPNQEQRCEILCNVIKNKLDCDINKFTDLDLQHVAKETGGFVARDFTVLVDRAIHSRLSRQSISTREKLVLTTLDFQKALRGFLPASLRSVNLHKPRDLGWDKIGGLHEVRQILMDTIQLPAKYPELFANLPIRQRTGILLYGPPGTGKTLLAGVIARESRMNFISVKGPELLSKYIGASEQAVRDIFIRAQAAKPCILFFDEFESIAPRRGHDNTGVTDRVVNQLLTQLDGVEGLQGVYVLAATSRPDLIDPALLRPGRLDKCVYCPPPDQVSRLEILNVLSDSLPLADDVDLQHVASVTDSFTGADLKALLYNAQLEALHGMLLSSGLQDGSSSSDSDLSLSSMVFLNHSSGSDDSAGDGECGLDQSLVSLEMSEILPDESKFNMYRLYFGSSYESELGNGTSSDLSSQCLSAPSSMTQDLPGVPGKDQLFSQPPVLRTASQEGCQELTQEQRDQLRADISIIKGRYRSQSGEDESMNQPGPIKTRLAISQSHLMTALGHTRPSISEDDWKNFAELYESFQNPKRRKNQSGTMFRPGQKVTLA

T2: PEX3 (UniProt P56589)
T2 sequence: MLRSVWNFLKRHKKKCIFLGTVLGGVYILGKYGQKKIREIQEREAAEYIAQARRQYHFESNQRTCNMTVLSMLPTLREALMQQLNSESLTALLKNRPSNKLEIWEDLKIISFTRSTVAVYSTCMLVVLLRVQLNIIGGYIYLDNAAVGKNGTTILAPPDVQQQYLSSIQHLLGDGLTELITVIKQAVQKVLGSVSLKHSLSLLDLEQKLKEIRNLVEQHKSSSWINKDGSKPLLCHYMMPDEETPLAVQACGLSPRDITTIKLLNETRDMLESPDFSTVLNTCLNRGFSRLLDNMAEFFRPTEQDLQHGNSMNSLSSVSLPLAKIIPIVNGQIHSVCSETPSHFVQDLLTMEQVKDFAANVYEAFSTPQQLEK

T3: peroxin PEX6 (UniProt Q13608)
T3 sequence: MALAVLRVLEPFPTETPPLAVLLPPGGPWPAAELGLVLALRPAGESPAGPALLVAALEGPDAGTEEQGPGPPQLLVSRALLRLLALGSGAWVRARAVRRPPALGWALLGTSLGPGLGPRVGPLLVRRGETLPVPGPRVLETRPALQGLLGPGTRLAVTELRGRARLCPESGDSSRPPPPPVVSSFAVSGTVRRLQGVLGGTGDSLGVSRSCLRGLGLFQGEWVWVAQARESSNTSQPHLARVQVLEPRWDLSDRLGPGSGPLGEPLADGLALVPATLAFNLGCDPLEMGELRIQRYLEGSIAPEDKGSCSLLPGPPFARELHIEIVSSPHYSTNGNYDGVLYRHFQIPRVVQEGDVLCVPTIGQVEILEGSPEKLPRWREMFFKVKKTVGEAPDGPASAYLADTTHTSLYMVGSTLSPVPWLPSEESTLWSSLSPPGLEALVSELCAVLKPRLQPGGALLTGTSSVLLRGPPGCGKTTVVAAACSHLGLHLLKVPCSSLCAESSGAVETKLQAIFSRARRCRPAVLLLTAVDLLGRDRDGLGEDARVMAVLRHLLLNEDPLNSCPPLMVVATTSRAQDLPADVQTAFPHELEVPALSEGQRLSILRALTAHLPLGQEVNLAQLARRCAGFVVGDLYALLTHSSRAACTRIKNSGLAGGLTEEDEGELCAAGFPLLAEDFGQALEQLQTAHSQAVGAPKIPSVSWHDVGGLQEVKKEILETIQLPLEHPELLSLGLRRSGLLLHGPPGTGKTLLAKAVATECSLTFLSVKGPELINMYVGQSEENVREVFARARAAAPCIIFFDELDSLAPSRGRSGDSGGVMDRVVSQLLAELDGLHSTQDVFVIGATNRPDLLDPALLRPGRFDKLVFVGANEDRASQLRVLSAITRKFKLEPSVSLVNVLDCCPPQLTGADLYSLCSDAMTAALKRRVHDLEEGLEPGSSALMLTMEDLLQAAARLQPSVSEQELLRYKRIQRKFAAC


Legend:
Experiment in all cases: FRET or BRET; BRET in living HEK293 cells co-transfected with Rluc (donor) and YFP (acceptor) fusions, acceptor to donor ratio 3:1; read 48 h later with coelenterazine 30 μM; all eight combinations of N- or C-terminal fusions tested in duplicates; interaction assumed if at least one combination gave a BRET ratio above the threshold of 0.094
[1] = biological target: T1, PEX1
[2] = biological target: T2, PEX3
[3] = biological target: T3, peroxin PEX6

binding [1]	binding [2]	binding [3]	Binder
binds	no binding		peroxin PEX6 (protein, UniProt Q13608 1-980) MALAVLRVLEPFPTETPPLAVLLPPGGPWPAAELGLVLALRPAGESPAGPALLVAALEGPDAGTEEQGPGPPQLLVSRALLRLLALGSGAWVRARAVRRPPALGWALLGTSLGPGLGPRVGPLLVRRGETLPVPGPRVLETRPALQGLLGPGTRLAVTELRGRARLCPESGDSSRPPPPPVVSSFAVSGTVRRLQGVLGGTGDSLGVSRSCLRGLGLFQGEWVWVAQARESSNTSQPHLARVQVLEPRWDLSDRLGPGSGPLGEPLADGLALVPATLAFNLGCDPLEMGELRIQRYLEGSIAPEDKGSCSLLPGPPFARELHIEIVSSPHYSTNGNYDGVLYRHFQIPRVVQEGDVLCVPTIGQVEILEGSPEKLPRWREMFFKVKKTVGEAPDGPASAYLADTTHTSLYMVGSTLSPVPWLPSEESTLWSSLSPPGLEALVSELCAVLKPRLQPGGALLTGTSSVLLRGPPGCGKTTVVAAACSHLGLHLLKVPCSSLCAESSGAVETKLQAIFSRARRCRPAVLLLTAVDLLGRDRDGLGEDARVMAVLRHLLLNEDPLNSCPPLMVVATTSRAQDLPADVQTAFPHELEVPALSEGQRLSILRALTAHLPLGQEVNLAQLARRCAGFVVGDLYALLTHSSRAACTRIKNSGLAGGLTEEDEGELCAAGFPLLAEDFGQALEQLQTAHSQAVGAPKIPSVSWHDVGGLQEVKKEILETIQLPLEHPELLSLGLRRSGLLLHGPPGTGKTLLAKAVATECSLTFLSVKGPELINMYVGQSEENVREVFARARAAAPCIIFFDELDSLAPSRGRSGDSGGVMDRVVSQLLAELDGLHSTQDVFVIGATNRPDLLDPALLRPGRFDKLVFVGANEDRASQLRVLSAITRKFKLEPSVSLVNVLDCCPPQLTGADLYSLCSDAMTAALKRRVHDLEEGLEPGSSALMLTMEDLLQAAARLQPSVSEQELLRYKRIQRKFAAC
		no binding	PEX26 p.Met1Thr truncated fragment (aa96-305) (domain or fragment, UniProt Q7Z412-1 96-305) MDRWQEVLSWVLQYYQVPEKLPPKVLELCILLYSKMQEPGAVLDVVGAWLQDPANQNLPEYGALAEFHVQRVLLPLGCLSEAEELVVGSAAFGEERRLDVLQAIHTARQQQKQEHSGSEEAQKPNLEGSVSHKFLSLPMLVRQLWDSAVSHFFSLPFKKSLLAALILCLLVVRFDPASPSSLHFLYKLAQLFRWIRKAAFSRLYQLRIRD
